# Assay results published in PMC4336329 (PLoS ONE, 2015).
# Screen size: about 310,000 compounds; about 2,200 (0.71%) showed an effect of 50% or more. Effects have a minus sign here. The list shows a part of the results.
# Biological target: human ether-à-go-go-related gene (hERG) potassium channel (human, UniProt Q12809)
# Assay: primary screen, population patch clamp on CHO cells stably expressing hERG
# Sequence of human ether-à-go-go-related gene (hERG) potassium channel (Q12809 whole entry, looked up): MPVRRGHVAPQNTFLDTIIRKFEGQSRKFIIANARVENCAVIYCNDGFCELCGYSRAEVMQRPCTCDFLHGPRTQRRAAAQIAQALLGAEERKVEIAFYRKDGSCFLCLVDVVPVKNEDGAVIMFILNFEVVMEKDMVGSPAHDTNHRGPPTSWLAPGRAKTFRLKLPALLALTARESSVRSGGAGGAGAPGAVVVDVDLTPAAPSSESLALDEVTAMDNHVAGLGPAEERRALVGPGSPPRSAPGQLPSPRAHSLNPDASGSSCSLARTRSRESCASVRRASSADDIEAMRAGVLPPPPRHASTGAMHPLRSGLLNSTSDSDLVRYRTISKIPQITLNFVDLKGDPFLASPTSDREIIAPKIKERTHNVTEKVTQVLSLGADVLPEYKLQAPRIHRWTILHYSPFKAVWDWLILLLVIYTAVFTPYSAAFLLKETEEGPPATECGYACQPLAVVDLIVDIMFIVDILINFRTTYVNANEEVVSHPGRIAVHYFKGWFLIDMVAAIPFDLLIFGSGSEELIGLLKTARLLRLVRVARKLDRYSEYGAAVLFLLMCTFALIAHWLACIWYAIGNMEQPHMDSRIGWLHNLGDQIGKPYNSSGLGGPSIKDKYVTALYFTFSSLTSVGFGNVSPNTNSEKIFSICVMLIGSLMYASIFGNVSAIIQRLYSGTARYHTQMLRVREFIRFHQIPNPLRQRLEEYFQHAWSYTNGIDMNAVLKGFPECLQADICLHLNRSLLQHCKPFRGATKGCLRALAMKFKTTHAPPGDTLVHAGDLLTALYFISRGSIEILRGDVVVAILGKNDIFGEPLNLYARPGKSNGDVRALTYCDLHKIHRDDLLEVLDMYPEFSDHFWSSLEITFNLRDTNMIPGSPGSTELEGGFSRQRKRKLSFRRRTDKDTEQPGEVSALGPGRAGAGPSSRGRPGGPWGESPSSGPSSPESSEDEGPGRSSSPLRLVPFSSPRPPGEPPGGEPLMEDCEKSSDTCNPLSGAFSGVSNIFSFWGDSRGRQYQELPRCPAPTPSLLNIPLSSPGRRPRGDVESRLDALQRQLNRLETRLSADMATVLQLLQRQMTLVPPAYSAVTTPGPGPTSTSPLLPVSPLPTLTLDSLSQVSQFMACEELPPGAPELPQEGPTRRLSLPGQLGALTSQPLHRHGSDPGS
row,Compound,"hERG current change (%, negative = inhibition) at 1uM"
1,Cc1ccc(-c2ccc(C(=O)Nc3cccc(F)c3)o2)c2ccccc12,15.1%
2,CCOC(=O)CNC(=O)CSc1nnc(-c2ccccc2OC)n1CC,8.63%
3,Cc1ccc(NC(=O)CC2C(=O)OCC3CCCCN32)cc1Cl (centres unmarked),12.7%
4,O=C1C2C3C=CC(C4CC34)C2C(=O)N1/N=C/c1ccc(-c2ccc(Cl)cc2[N+](=O)[O-])o1 (centres unmarked),6.75%
5,COc1cccc(N2C(=NC(=O)CCc3ccccc3)SC3CS(=O)(=O)CC32)c1 (centres unmarked),7.19%
6,CN1CCN(C(=O)CN(C)S(=O)(=O)c2ccc(F)cc2)CC1,16.7%
7,O=C(Nc1ccccc1Cl)C1CC(=O)N(Cc2ccco2)C1 (centres unmarked),3.25%
8,O=C(Cc1cccc2ccccc12)NCC(=O)N1CCN(Cc2cccc(C(F)(F)F)c2)CC1,9.24%
9,CC(C)CCn1c(=O)c2ccccc2c2ccccc2c1=O,10%
10,COc1ccc(NC(=O)C(c2ccc(OC)cc2)N(C)C(=O)c2cnccn2)cc1 (centres unmarked),-1.14%
11,O=C(COC(=O)C1CC1)Nc1ncc(C(F)(F)F)cc1Cl,21.5%
12,Cc1ccc(S(=O)(=O)Oc2ccc(C)cc2/C=N/N=C2\NC(=O)C(C)S2)cc1 (centres unmarked),5.36%
13,Cc1ccc(C)c(NC(=O)CN2C(=O)COc3ccc(S(=O)(=O)N4CCCC4)cc32)c1,9.2%
14,O=C(COc1ccc(F)c(Cl)c1)N1CCN(c2ccccn2)CC1,-13.8%
15,COCCn1c(N)c(NCc2ccccc2)c(=O)n(CC(=O)Nc2cc(C)ccc2C)c1=O,-3.57%
16,Cc1ccc(C(NC(=O)CN2C(=O)NC3(CCCC3)C2=O)c2ccccc2)cc1 (centres unmarked),9.26%
17,COc1ccc(CNC(=S)Nc2ccccc2)cc1Cl,7.32%
18,CCCc1cc(=O)oc2c(C)c(OC(C)C(=O)NCc3ccccn3)ccc12 (centres unmarked),-2.56%
19,COc1ccc(S(=O)(=O)n2cnc3ccccc32)cc1.Cl,12.5%
20,CCC1(OC(=O)CN)C(=O)OCc2c1cc1n(c2=O)Cc2cc3ccccc3nc2-1.Cl (centres unmarked),15.9%
21,N#CC(C#N)=C1NC2(CCCCC2)Cc2ccccc21,10.9%
22,NC(=S)N/N=C/c1ccc(OC(=O)c2cccnc2)cc1,14.4%

row,Compound,"hERG current change (%, negative = inhibition) at 1uM"
1,Cc1ncc(CN2CCCC(C(=O)Nc3ccc(-c4cccc(F)c4)cc3)C2)s1 (centres unmarked),6.04%
2,COc1ccc(C(=O)NC2CCN(C(=S)Nc3cc(C)ccc3C)CC2)cc1,7.77%
3,O=[N+]([O-])c1cccc(S(=O)(=O)Nc2ccc(S(=O)(=O)NCC3CCCO3)cc2)c1 (centres unmarked),10.5%
4,O=[N+]([O-])c1ccc(-c2cn(-c3ccc(Cl)cc3)c(=S)[nH]2)cc1,9.78%
5,CCOC(=O)CN1CCC(c2cc(-c3ccc(Cl)cc3)n[nH]2)CC1,22.3%
6,CCN(CC)Cc1c(NC(=O)c2ccccc2)sc(C)c1C,-7.95%
7,CCC(Oc1ccccc1F)C(=O)Nc1ccc2c(c1)n(C)c(=O)n2C (centres unmarked),10.6%
8,COc1cc(/C(C#N)=C/c2cccc3ccccc23)c([N+](=O)[O-])cc1OC,14.3%
9,c1ccc(-c2nn3c(Cn4nnc5ccccc54)nnc3s2)nc1,0.716%
10,O=P(Cc1cc[n+]([O-])cc1)(c1ccccc1)c1ccccc1,15.8%
11,Cc1nn(C(C)(C)C)c(OC(=O)CC(C)C)c1S(=O)(=O)c1ccccc1,10.4%
12,CC(C)Nc1nc(NC(N)=S)nc(NC(C)C)n1,8.9%
13,Cc1ccc2c(CSc3nncs3)cc(=O)oc2c1,3.04%
14,Cc1nnc(SCC(=O)NCC2COc3ccccc3O2)s1 (centres unmarked),16.1%
15,CCSc1ncnc2c(C#N)c3n(c12)CCCCC3,4.78%
16,CNC(=S)Nc1cccc(C(=O)OC)c1,11.5%
17,CC(C)(C)c1cc(NC(=O)c2cccnc2)no1,-2.17%
18,C=CCNC(=S)N1CCN(c2ccc([N+](=O)[O-])cc2)CC1,-52.1%
19,CCCc1nc2sc3c(c2c(=O)n1NC(=O)c1ccco1)CC(C)(C)OC3,9.77%
20,CC(=O)NC(Cc1cccc(F)c1)C(=O)NC1CCN(C(=O)Nc2ccc(C)cc2)CC1 (centres unmarked),15.8%
21,COc1ccc(CC2(CO)CCN(C/C=C/c3ccccc3OC)CC2)cc1,-71.4%
22,CCOC(=O)C1CCCN(CC(=O)Nc2c(C(=O)OC)[nH]c3ccc(Cl)cc23)C1 (centres unmarked),6.43%

row,Compound,"hERG current change (%, negative = inhibition) at 1uM"
1,NS(=O)(=O)c1cc(C(=O)OCC(=O)Nc2ccccc2[N+](=O)[O-])ccc1Cl,8.47%
2,Nc1nc(Nc2ccccc2F)nc(NCCO)c1[N+](=O)[O-],12.2%
3,NC(=O)c1c(NC(=O)c2ccccc2)sc2c1CCc1ccccc1-2,4.64%
4,CCNC(=S)NNC(=O)c1nn(C)c(C)c1Cl,10.5%
5,CC(C)CNC(CC(=O)O)c1ccccc1 (centres unmarked),6.91%
6,CN(C)CCNC(C(=O)Nc1cccc(C(F)(F)F)c1)c1ccccc1.O=C(O)C(=O)O (centres unmarked),-14.6%
7,CCOc1ccccc1NC(=O)COc1coc(CN2CCCc3ccccc32)cc1=O,13.5%
8,CCN(CC)S(=O)(=O)c1ccc(N2CCN(CCOc3ccc(OC)cc3)CC2)nc1,-1.21%
9,COc1ccc(Cc2nnc(NC(=O)C3CC(=O)N(c4ccccc4)C3)s2)cc1OC (centres unmarked),0.647%
10,CCOC(=O)c1c(NC(=O)c2cccs2)sc2c1CC(C)(C)OC2,9.62%
11,Cc1ccc(C(=O)N/C(=C\c2ccc(-c3ccc(Cl)cc3)o2)C(=O)NCCCN(C)C)cc1,-93.5%
12,COc1cccc(C2C(C(=O)c3cccs3)=C(O)C(=O)N2CCN2CCOCC2)c1 (centres unmarked),17.2%
13,CCOC(=O)c1c(C)nn(-c2ncccc2NC(=O)NC(C)C)c1C,1.69%
14,CC(CN1CCCCC1)OC(=O)c1ccccc1F.Cl (centres unmarked),10.6%
15,COc1ccc(N2CCN(C(=O)CCc3ccc(S(=O)(=O)NC(C)(C)C)cc3)CC2)cc1,9.52%
16,COc1ccc(-c2nc(CN3CCN(Cc4cccc(F)c4)CC3)c(C)o2)cc1,-5.04%
17,O=C(CCCSc1nc2ccccc2[nH]1)NCc1ccccc1F,4.76%
18,CN1C(=O)CSc2ccc(NC(=O)N3CCC(N4CCCCC4)CC3)cc21,-2.54%
19,CSc1nc2c(c(=O)[nH]1)C(c1ccccc1)C1=C(CC(C)(C)CC1=O)N2 (centres unmarked),17.4%
20,CN1CCC(C2(O)c3ccccc3CSc3sccc32)CC1 (centres unmarked),7.14%
21,CCC(C)Sc1nc2c(c(=O)[nH]c(=O)n2C)n1Cc1ccc(Cl)cc1 (centres unmarked),2.15%
22,O=C(O)/C=C/C(=O)Nc1ccccc1SC(F)(F)C(F)(F)C(F)(F)F,-2.03%

row,Compound,"hERG current change (%, negative = inhibition) at 1uM"
1,COc1ccc(C(=O)O/N=C(/c2cccs2)C(C)(C)C)cc1,9.8%
2,O=C(O)CSc1nnc(SCc2cccc3ccccc23)s1,6.81%
3,CCc1sc(C(=O)Nc2cccc(C(C)=O)c2)cc1C,3.68%
4,CCCCn1c(SCC(=O)Nc2ccc(NC(C)=O)cc2)nc2ccccc2c1=O,3.76%
5,CCO.Cn1c2c(c(=O)n(C)c1=O)[C@@]1(C(=O)Nc3ccccc31)C(C#N)=C(N)O2,12.2%
6,Cn1ccnc1Sc1ccc(C=O)cc1[N+](=O)[O-],4.93%
7,CCOC(=O)c1[nH]c2ccc(OCC)cc2c1CCCN1C(=O)c2ccccc2C1=O,14.5%
8,COC(=O)CN1C(=O)[C@@H]2[C@H](C1=O)[C@@H]1CC(C(=O)OC)=C[C@@H](C(=O)OC)[C@@H]3C1=C(C(=O)[C@@]3(C)NC(=O)c1ccccc1)[C@@H]2C,9.32%
9,CC(C)[C@@H]1NC(=O)N(c2ccc(Oc3ccccc3)cc2)C1=O,11.4%
10,COc1ccc(NC(=O)CCC(=O)N(Cc2ccc(OC)c(OC)c2)c2nccs2)c(OC)c1,8.49%
11,CCOC(=O)c1ccccc1NC(=O)C1COc2ccccc2O1 (centres unmarked),9.21%
12,O=C(O)CC(NCc1ccco1)C(=O)OCCCl (centres unmarked),15.2%
13,O=C(NCc1ccccc1)c1cccc(COc2ccc(Cl)cc2)c1,7.31%
14,C[C@@]12C(=O)N(Cc3ccccc3)CC(=O)N1[C@H](/C=C/c1ccccc1)[C@@H]1C(=O)N(c3ccccc3)C(=O)[C@@H]12,3.72%
15,CC1CCN(S(=O)(=O)c2ccc3[nH]c(=O)c(=O)[nH]c3c2)CC1,2.51%
16,O=[N+]([O-])c1ccc(Oc2cccc(Br)c2)c2ccncc12,11.9%
17,CN1CCc2c(sc3nc(SCC(N)=O)n(-c4ccccc4)c(=O)c23)C1,6.73%
18,C/C(=N/NC(=O)c1sc(NS(=O)(=O)c2ccccc2)nc1C)c1sc(N)nc1C,11.1%
19,CCCn1nnnc1SCC(=O)N1CCCC1,5.4%
20,CCCCn1c(Cc2ccccc2)nnc1SCC(=O)N1CCOCC1,-1.72%
